Measured values as given in the supplement of paper PMC11125491.
± gives the standard deviation of the averaged measurements. Growth of baker's yeast expressing single-residue variants of Pneumocystis jirovecii dihydrofolate reductase in 8.8 or 44 µM methotrexate (about 75% and 90% inhibition of the wild type). Selection coefficient per generation; 0 = like wild type, above 0 = less sensitive, below 0 = more sensitive or loss of function. No active / inactive call per row; the paper calls resistant above 0.220 (8.8 µM) or 0.243 (44 µM) together with a significance test. At 44 µM about 15% of codons end with one read or none, so the lowest values are floors (replicate rank correlation 0.74; 0.94 at 8.8 µM).

B1: UniProt A0EPZ9; numbered along this chain (parent)
chain: MDWQKSLTLIVALTLSRGIGLKNDLPWKLKSDMMFFSRVTSGLLVTRSTGQMNVVLMGRKTWESLPAHSRPLKNRINVVISRQEVLDLGGGAYHARSLDDALALLSQIYDSTSKIQLNRVFVIGGGELCKAAMEHSRLNRIIATVIHNEVDCDVFFPIDFRSSQSCLPWRKQDHSVLEAWVGSKVPQGKINENGFIYEFEMWIRDI

Variants of: B1
Assay: selection coefficient against synonymous wild-type codons (log2 per generation); higher = faster growth than wild type
Settings: with Saccharomyces cerevisiae carrying the variant on a plasmid
Method: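 Pooled growth of yeast carrying single-residue variants of P. jirovecii dihydrofolate reductase (own DFR1 gene intact), two passages at 30 °C, three cultures, sequenced before and after. Codons with under 15 starting reads are left out; codons of one change are averaged.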

Row | Variant | selection coefficient against synonymous wild-type codons (log2) (methotrexate 8.8 µM) | selection coefficient against synonymous wild-type codons (log2) (methotrexate 44 µM)
1 | L21P | -0.199 ± 0.097 | -0.1 ± 0.097
2 | L21G | 0.314 ± 0.02 | 0.321 ± 0.037
3 | L21I | -0.0207 ± 0.083 | 0.0833 ± 0.09
4 | L21T | 0.19 ± 0.03 | 0.146 ± 0.13
5 | L21N | 0.0196 ± 0.19 | 0.0464 ± 0.053
6 | L21V | 0.135 ± 0.014 | 0.112 ± 0.056
7 | L21D | 0.248 ± 0.01 | 0.221 ± 0.046
8 | L21A | 0.145 ± 0.045 | 0.154 ± 0.043
9 | L21M | 0.137 ± 0.035 | 0.173 ± 0.047
10 | L21W | -0.0356 ± 0.027 | -0.00708 ± 0.02
11 | L21S | 0.225 ± 0.056 | 0.184 ± 0.1
12 | L21C | 0.264 ± 0.023 | 0.262 ± 0.017
13 | L21Q | 0.319 ± 0.035 | 0.274 ± 0.037
14 | L21H | 0.286 ± 0.053 | 0.231 ± 0.068
15 | L21Y | -0.0502 ± 0.021 | -0.0193 ± 0.064
16 | L21R | 0.24 ± 0.17 | 0.247 ± 0.19
17 | L21F | 0.0539 ± 0.0024 | 0.0943 ± 0.051
18 | L21K | 0.103 ± 0.025 | 0.136 ± 0.045
19 | L21E | 0.256 ± 0.023 | 0.263 ± 0.03
20 | G18T | 0.04 ± 0.068 | 0.0751 ± 0.14
21 | G18L | -0.466 ± 0.063 | -0.176 ± 0.1
22 | G18E | 0.155 ± 0.022 | 0.219 ± 0.043
23 | G18P | -0.313 ± 0.11 | -0.115 ± 0.13

Row | Variant | selection coefficient against synonymous wild-type codons (log2) (methotrexate 8.8 µM) | selection coefficient against synonymous wild-type codons (log2) (methotrexate 44 µM)
24 | G18A | -0.0979 ± 0.087 | -0.0941 ± 0.19
25 | G18C | 0.0581 ± 0.046 | 0.097 ± 0.083
26 | G18Q | 0.0814 ± 0.021 | -0.0263 ± 0.17
27 | G18V | -0.14 ± 0.069 | -0.0159 ± 0.13
28 | G18M | -0.231 ± 0.11 | -0.194 ± 0.14
29 | G18N | -0.106 ± 0.1 | -0.0513 ± 0.039
30 | G18K | 0.0383 ± 0.066 | 0.0387 ± 0.11
31 | G18W | -0.331 ± 0.022 | -0.165 ± 0.14
32 | G18D | -0.115 ± 0.14 | 0.0349 ± 0.051
33 | G18R | 0.116 ± 0.038 | 0.148 ± 0.049
34 | G18S | -0.0591 ± 0.054 | -0.0584 ± 0.1
35 | L13G | 0.527 ± 0.025 | 0.599 ± 0.027
36 | L13K | 0.232 ± 0.016 | 0.221 ± 0.068
37 | L13R | 0.537 ± 0.089 | 0.588 ± 0.11
38 | L13P | 0.672 ± 0.031 | 0.771 ± 0.054
39 | L13F | 0.0893 ± 0.033 | 0.098 ± 0.053
40 | L13S | 0.461 ± 0.068 | 0.421 ± 0.075
41 | L13T | 0.37 ± 0.081 | 0.327 ± 0.11
42 | L13Y | 0.291 ± 0.021 | 0.321 ± 0.09
43 | L13H | 0.232 ± 0.022 | 0.203 ± 0.018
44 | L13V | 0.278 ± 0.021 | 0.268 ± 0.045
45 | L13I | 0.174 ± 0.059 | 0.0641 ± 0.02
46 | L13A | 0.351 ± 0.058 | 0.333 ± 0.065

Row | Variant | selection coefficient against synonymous wild-type codons (log2) (methotrexate 8.8 µM) | selection coefficient against synonymous wild-type codons (log2) (methotrexate 44 µM)
47 | L13M | 0.118 ± 0.043 | 0.0549 ± 0.046
48 | L13Q | 0.575 ± 0.035 | 0.589 ± 0.075
49 | L13N | 0.322 ± 0.05 | 0.357 ± 0.057
50 | L13D | 0.511 ± 0.014 | 0.644 ± 0.021
51 | L13C | 0.31 ± 0.045 | 0.261 ± 0.043
52 | L13W | 0.579 ± 0.024 | 0.635 ± 0.035
53 | L13E | 0.29 ± 0.02 | 0.273 ± 0.017
54 | S16V | -0.0474 ± 0.094 | -0.0863 ± 0.15
55 | S16E | 0.153 ± 0.044 | 0.0696 ± 0.053
56 | S16N | -0.0233 ± 0.069 | -0.0718 ± 0.065
57 | S16G | 0.0746 ± 0.021 | 0.0568 ± 0.064
58 | S16P | 0.4 ± 0.056 | 0.422 ± 0.058
59 | S16Q | 0.0506 ± 0.016 | 0.0253 ± 0.21
60 | S16R | -0.0671 ± 0.07 | -0.049 ± 0.05
61 | S16T | 0.158 ± 0.037 | 0.128 ± 0.041
62 | S16D | 0.148 ± 0.044 | 0.118 ± 0.068
63 | S16A | -0.0986 ± 0.075 | -0.138 ± 0.17
64 | S16H | 0.0654 ± 0.1 | 0.0696 ± 0.12
65 | S16Y | -0.179 ± 0.14 | -0.123 ± 0.11
66 | S16K | -0.096 ± 0.12 | -0.0812 ± 0.084
67 | S16L | -0.318 ± 0.082 | -0.224 ± 0.12
68 | S16I | -0.22 ± 0.041 | -0.252 ± 0.19
69 | S16M | -0.29 ± 0.022 | -0.268 ± 0.063

Row | Variant | selection coefficient against synonymous wild-type codons (log2) (methotrexate 8.8 µM) | selection coefficient against synonymous wild-type codons (log2) (methotrexate 44 µM)
70 | S16W | -0.201 ± 0.098 | -0.23 ± 0.097
71 | S16F | -0.252 ± 0.11 | -0.0996 ± 0.18
72 | S16C | -0.152 ± 0.062 | -0.122 ± 0.05
73 | A12M | -0.27 ± 0.14 | -0.178 ± 0.066
74 | A12W | -0.532 ± 0.17 | -0.248 ± 0.1
75 | A12E | -0.325 ± 0.1 | -0.344 ± 0.16
76 | A12I | -0.00504 ± 0.08 | 0.0224 ± 0.12
77 | A12P | -0.425 ± 0.12 | -0.237 ± 0.17
78 | A12Q | -0.381 ± 0.087 | -0.125 ± 0.11
79 | A12K | -0.55 ± 0.1 | -0.26 ± 0.07
80 | A12V | 0.202 ± 0.019 | 0.183 ± 0.035
81 | A12R | -0.503 ± 0.12 | -0.313 ± 0.14
82 | A12Y | -0.392 ± 0.063 | -0.101 ± 0.055
83 | A12L | -0.435 ± 0.1 | -0.18 ± 0.17
84 | A12N | 0.623 ± 0.06 | 0.76 ± 0.07
85 | A12G | 0.51 ± 0.024 | 0.568 ± 0.025
86 | A12S | 0.448 ± 0.049 | 0.515 ± 0.05
87 | A12T | 0.312 ± 0.021 | 0.329 ± 0.079
88 | A12D | -0.329 ± 0.088 | -0.0751 ± 0.035
89 | A12H | -0.248 ± 0.082 | -0.0177 ± 0.088
90 | A12C | 0.172 ± 0.031 | 0.151 ± 0.11
91 | A12F | -0.401 ± 0.046 | -0.153 ± 0.02
92 | I19N | 0.181 ± 0.082 | 0.295 ± 0.11

Row | Variant | selection coefficient against synonymous wild-type codons (log2) (methotrexate 8.8 µM) | selection coefficient against synonymous wild-type codons (log2) (methotrexate 44 µM)
93 | I19R | -0.176 ± 0.06 | 0.0436 ± 0.24
94 | I19T | 0.407 ± 0.058 | 0.446 ± 0.026
95 | I19L | 0.132 ± 0.056 | 0.164 ± 0.12
96 | I19H | 0.891 ± 0.068 | 1.16 ± 0.051
97 | I19M | 0.121 ± 0.01 | 0.18 ± 0.0089
98 | I19A | 0.761 ± 0.054 | 0.911 ± 0.042
99 | I19W | 0.323 ± 0.06 | 0.419 ± 0.065
100 | I19D | -0.0328 ± 0.082 | 0.247 ± 0.1
101 | I19F | 0.476 ± 0.013 | 0.576 ± 0.017
102 | I19Y | 0.687 ± 0.051 | 0.876 ± 0.074
103 | I19G | 0.803 ± 0.057 | 0.965 ± 0.028
104 | I19E | 0.575 ± 0.049 | 0.76 ± 0.01
105 | I19K | 0.45 ± 0.009 | 0.6 ± 0.0098
106 | I19P | -0.336 ± 0.14 | -0.0708 ± 0.07
107 | I19S | 0.418 ± 0.089 | 0.463 ± 0.11
108 | I19Q | 0.631 ± 0.043 | 0.672 ± 0.011
109 | I19V | 0.34 ± 0.036 | 0.391 ± 0.032
110 | I19C | 0.481 ± 0.03 | 0.508 ± 0.027
111 | T14L | -0.447 ± 0.13 | -0.241 ± 0.14
112 | T14P | 0.547 ± 0.11 | 0.672 ± 0.12
113 | T14E | 0.107 ± 0.015 | 0.112 ± 0.065
114 | T14K | 0.0534 ± 0.034 | 0.156 ± 0.03
115 | T14Y | -0.574 ± 0.018 | -0.259 ± 0.099
